Measured values published in the supplement of paper PMC12217912.
The list shows a part of the results. The full chains were built here from the parent and the listed change. Inactive controls read about 0.05.

B1: TEV protease; numbered along this chain (parent)
chain: MGESLFKGPRDYNPISSSICHLTNESDGHTTSLYGIGFGPFIITNKHLFRRNNGTLVVQSLHGVFKVKDTTTLQQHLVDGRDMIIIRMPKDFPPFPQKLKFREPQREERICLVTTNFQTKSMSSMVSDTSCTFPSGDGIFWKHWIQTKDGQCGSPLVSTRDGFIVGIHSASNFTNTNNYFTSVPKNFMELLTNQEAQQWVSGWRLNADSVLWGGHKVFMVKPEEPFQPVKEATQL

Variants of: B1
Assay: raw area under fraction-flipped curve 0-4 h after induction (AUC4h, not background-subtracted), DNA-recorder readout of cleavage of the substrate (dimensionless); higher = more cleavage of the substrate by the protease variant
Conditions: temperature: 34 °C; time window: 0-4 h after rhamnose induction
Method: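 In vivo DNA recorder in E. coli TOP10(DE3) ΔrhaA at 34 °C. Each TEVp single-site mutant (parent TEVp 0) is paired with a single-site variant of the 7-mer TEVs (canonical ENLYFQ|S). The substrate sits between flexible linkers in a Bxb1-sfGFP-TEVs-SsrA fusion, so cleavage stabilises Bxb1 and speeds flipping of a recombination array, read by NGS. The value is the raw area under the fraction-flipped curve over 0-4 h after rhamnose induction (AUC4h), with ≥20 reads per time point. It is not background-subtracted; inactive controls average about 0.047.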
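Further: Bxb1 expression induced with 0.2% (w/v) L-rhamnose at OD600 near 0.5, cultures sampled hourly, flipped fraction per protease–substrate barcode pair counted by paired-end Illumina sequencing.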

Row | Variant | area with substrate ENLYAQS | area with substrate ENLYDQS | area with substrate ENLYGQS | area with substrate ENLYHQS | area with substrate ENLYIQS | area with substrate ENLYKQS | area with substrate ENLYMQS | area with substrate ENLYNQS | area with substrate ENLYPQS | area with substrate ENLYQQS | area with substrate ENLYRQS | area with substrate ENLYVQS | area with substrate ENLYWQS | area with substrate ENLYYQS | area with substrate ENLYCQS | area with substrate ENLYEQS | area with substrate ENLYLQS | area with substrate ENLYSQS | area with substrate ENLYTQS
1 | V157S | 0.0644 | 0.0586 | 0.0553 | 0.0627 | 0.0818 | 0.0606 | 0.0716 | 0.0689 | 0.0659 | 0.0763 | 0.0539 | 0.0803 | 0.063 | 0.0479 |  |  |  |  | 
2 | V157L | 0.0713 | 0.0463 | 0.0649 | 0.0571 | 0.114 | 0.0452 |  | 0.0627 | 0.0962 |  | 0.0529 | 0.116 | 0.0881 | 0.0583 | 0.0914 | 0.0701 | 0.0728 | 0.064 | 
3 | V157D | 0.0484 | 0.0611 | 0.0422 | 0.055 | 0.0396 | 0.0232 | 0.0499 | 0.0433 | 0.0529 | 0.0236 | 0.0459 | 0.0368 |  | 0.0434 |  | 0.0594 | 0.0365 |  | 
4 | S121H | 0.0827 | 0.0701 | 0.0649 | 0.0728 | 0.145 | 0.0379 | 0.0959 | 0.0723 | 0.0752 | 0.0668 | 0.0528 | 0.133 | 0.0908 |  |  | 0.0668 | 0.0792 | 0.0678 | 0.0866
5 | S121W | 0.0692 | 0.0691 |  | 0.0734 |  | 0.0514 | 0.0932 | 0.0737 |  | 0.07 | 0.0526 |  |  |  |  | 0.0592 | 0.0615 | 0.0772 | 
6 | I110G | 0.059 | 0.0503 | 0.0445 | 0.0572 | 0.0574 |  | 0.0576 | 0.0511 |  |  | 0.0303 | 0.0695 |  |  |  | 0.0563 |  | 0.0512 | 0.0517
7 | I110T | 0.0562 | 0.0547 | 0.0688 | 0.0601 | 0.0945 | 0.0662 | 0.0907 | 0.0685 | 0.066 | 0.0669 | 0.0635 | 0.106 | 0.0707 |  |  | 0.0566 |  | 0.0567 | 
8 | V126Y | 0.0764 | 0.0565 | 0.0702 | 0.0793 | 0.132 | 0.0349 | 0.0682 | 0.0655 | 0.0775 | 0.0643 | 0.0594 | 0.0887 | 0.0943 | 0.0599 | 0.101 | 0.0708 |  | 0.089 | 0.0752
9 | V126A | 0.0694 | 0.0699 | 0.0644 | 0.076 |  | 0.0502 | 0.0941 | 0.0724 | 0.0772 | 0.0607 | 0.0591 |  | 0.0878 | 0.0616 | 0.0718 | 0.077 | 0.105 | 0.0686 | 
10 | K148E | 0.0662 | 0.0614 | 0.0669 | 0.0634 |  | 0.0709 | 0.0505 | 0.0777 | 0.0657 | 0.0703 | 0.0681 | 0.0778 | 0.0667 | 0.0581 | 0.0612 | 0.0652 | 0.0749 | 0.077 | 0.078
11 | K148R | 0.0874 |  | 0.0642 |  | 0.126 | 0.0527 | 0.0852 | 0.0669 | 0.0748 |  |  | 0.108 | 0.101 |  |  | 0.0807 | 0.0936 |  | 
12 | Q151E | 0.0724 | 0.0608 | 0.0793 |  | 0.123 | 0.0504 | 0.0952 | 0.0717 | 0.0755 |  | 0.064 | 0.0756 | 0.0686 | 0.0742 | 0.0664 | 0.0728 | 0.0821 |  | 
13 | Q146M | 0.0468 | 0.0603 | 0.09 | 0.0924 | 0.145 | 0.0805 | 0.148 | 0.0692 |  | 0.0569 |  | 0.179 | 0.0906 | 0.122 | 0.135 | 0.076 | 0.104 | 0.0924 | 0.124
14 | L156E | 0.0587 | 0.055 | 0.0529 | 0.0486 | 0.0481 | 0.0538 | 0.0441 | 0.0514 | 0.0579 | 0.0554 | 0.0511 | 0.055 | 0.0512 |  | 0.0568 | 0.0509 | 0.0495 | 0.0414 | 0.0511
15 | L156Q | 0.0495 | 0.0627 | 0.0589 | 0.0542 | 0.0721 | 0.0213 | 0.0595 | 0.0553 | 0.0452 | 0.0531 | 0.0555 |  | 0.0591 | 0.0504 | 0.0581 | 0.0613 |  |  | 
16 | S124V | 0.0724 | 0.0639 | 0.0666 | 0.0476 | 0.111 | 0.0656 | 0.104 | 0.0711 | 0.0664 | 0.0596 | 0.0537 | 0.103 | 0.103 |  |  | 0.0793 |  | 0.071 | 0.0712
17 | S124R | 0.0975 | 0.0837 | 0.0708 | 0.0538 | 0.116 | 0.0581 | 0.078 | 0.0668 | 0.0711 | 0.0546 | 0.0656 | 0.129 | 0.0908 | 0.0834 |  | 0.076 | 0.0634 | 0.0687 | 0.0899
18 | P104G | 0.0489 | 0.054 |  | 0.0455 | 0.0537 | 0.0177 | 0.0478 | 0.056 | 0.0402 | 0.0448 | 0.0517 | 0.0505 | 0.0508 | 0.0248 |  | 0.0429 |  | 0.0601 | 0.0524
19 | E108A | 0.0713 |  | 0.0509 | 0.0554 | 0.0763 | 0.02 | 0.05 | 0.0503 |  |  |  | 0.0428 | 0.0195 |  |  | 0.0598 |  | 0.0552 | 0.0369
20 | S123I | 0.0646 | 0.0645 | 0.0654 | 0.0761 |  | 0.0327 | 0.11 |  | 0.0921 |  | 0.0664 |  | 0.064 | 0.0717 | 0.0808 | 0.0542 |  | 0.0612 | 
21 | S123D | 0.0696 | 0.0792 | 0.0688 | 0.0618 | 0.124 | 0.0506 | 0.0848 | 0.0705 | 0.0798 | 0.0708 | 0.0663 | 0.108 | 0.0753 | 0.061 |  | 0.0658 | 0.0713 |  | 0.0784
22 | K142L | 0.0741 | 0.0684 | 0.0741 | 0.067 | 0.124 | 0.0543 | 0.0834 | 0.0691 | 0.0708 |  | 0.0481 | 0.121 | 0.102 | 0.0755 |  | 0.0625 |  |  | 
23 | K142I | 0.0558 |  | 0.0506 | 0.067 | 0.0982 | 0.0636 | 0.065 | 0.0689 | 0.0567 | 0.0655 |  |  | 0.0757 | 0.0115 |  | 0.0504 |  | 0.0625 | 0.061
